Measured values: article PMC6919601, “Identification of Plasmodium dipeptidyl aminopeptidase allosteric inhibitors by high throughput screening” (PLoS ONE, 2019)
In all, about 110,000 compounds went through this assay and about 230 (0.21%) showed an effect of 50% or more. The list shows a part of the results.

Biological target: DPAP1 (Plasmodium falciparum, UniProt Q8IIJ9)
Assay: primary screen, percent inhibition; read by cleavage of a fluorogenic dipeptide substrate; higher = more effect of the substance
Parameters: species or system P. falciparum D10 trophozoite lysates; single well
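Also: 30 min substrate incubation versus DMSO and 10 µM JCP410 controls.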

Chain of DPAP1 (Q8IIJ9 whole entry, looked up): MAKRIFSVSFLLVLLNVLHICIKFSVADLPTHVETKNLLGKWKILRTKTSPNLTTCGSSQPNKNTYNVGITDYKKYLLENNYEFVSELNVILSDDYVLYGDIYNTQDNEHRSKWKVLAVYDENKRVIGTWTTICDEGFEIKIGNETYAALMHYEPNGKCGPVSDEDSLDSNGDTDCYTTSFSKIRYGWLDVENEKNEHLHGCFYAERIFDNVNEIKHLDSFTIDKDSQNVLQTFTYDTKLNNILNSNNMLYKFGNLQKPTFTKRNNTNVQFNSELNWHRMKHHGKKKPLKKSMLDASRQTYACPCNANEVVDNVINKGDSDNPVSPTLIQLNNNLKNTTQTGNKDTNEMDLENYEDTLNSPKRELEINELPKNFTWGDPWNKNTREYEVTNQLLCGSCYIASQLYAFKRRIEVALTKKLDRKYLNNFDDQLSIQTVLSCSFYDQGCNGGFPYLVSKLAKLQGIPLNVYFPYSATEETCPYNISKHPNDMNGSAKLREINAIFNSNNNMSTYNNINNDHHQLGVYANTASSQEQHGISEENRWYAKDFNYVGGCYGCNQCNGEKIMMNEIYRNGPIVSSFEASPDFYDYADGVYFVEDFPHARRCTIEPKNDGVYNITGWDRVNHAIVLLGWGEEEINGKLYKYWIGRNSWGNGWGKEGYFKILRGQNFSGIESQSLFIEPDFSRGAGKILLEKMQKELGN

Compound | % Inhibition @ 10 uM
COc1ccc(CN(C(=O)c2cc(=O)c3ccc(C)cc3o2)C2CCS(=O)(=O)C2)cc1OC (centres unmarked) | -1.47%
COC(=O)c1ccc2oc(=O)c(S(=O)(=O)c3ccc(OC)cc3)cc2c1 | -0.326%
Cc1cc(C)n(-c2nc3ccccc3s2)n1 | -2.28%
O=C1CCC(=O)N1CCn1c2ccc(Br)cc2c2nc3ccccc3nc21 | 3.24%
COc1ccc(S(=O)(=O)N2CCC(C(=O)NCc3cccnc3)CC2)cc1 | -2.14%
C=CCc1cc(/C=C2/SC(=O)N(C)C2=O)cc(OCC)c1O | -4.7%
COC(=O)c1sc2nc3c(c(-c4ccc(C)o4)c2c1N)CCCC3 | -4.11%
CN1CCCN(Cc2ccc(Br)s2)CC1 | -3.56%
O=C(Nc1cccnc1)C(Sc1ccccc1)c1ccccc1 (centres unmarked) | 2.36%
Cc1cc(C)nc(NS(=O)(=O)c2ccc(NC(=O)COc3ccccc3C(C)C)cc2)n1 | -0.297%
O=C1CCCN1CP(=O)(O)CN1CCCCC1 | -0.582%
O=S(=O)(Nc1ccccn1)c1ccc(Cl)cc1 | 4.81%
CC(=O)c1ccc(NC(=O)CC(C)(C)C)cc1 | -1.38%
Cc1cc(C)nc(N=C(N)N)n1 | -1.52%
COc1ccc(NC(=O)C(C)Oc2ccccc2C)cc1 (centres unmarked) | -2.76%
CCOP(=O)(OCC)C(O)c1ccccc1 (centres unmarked) | 1.54%
CCOc1ccc(S(=O)(=O)Nc2ccc(S(=O)(=O)Nc3ccc(Cl)cc3)cc2)cc1 | 1.64%
CCOc1ccc2nc(N3CCCC(C(=O)NCCN4CCOCC4)C3)sc2c1 (centres unmarked) | 1.8%
CN1C(=O)S/C(=C\c2cc(Cl)c(OCC(=O)O)c(Cl)c2)C1=O | -6.87%
O=C1c2ccccc2C(=O)C1c1nc2ccccc2[nH]1 | 3.96%
CN(C)c1ccc(-c2ccc(O)cc2O)cc1 | 2.13%
O=C1c2cccc3c([N+](=O)[O-])ccc(c23)N1c1ccccc1 | 13.9%

Compound | % Inhibition @ 10 uM
Cc1cc(C)c2nc(Nc3nc(C)cc(O)n3)nc(C)c2c1 | -2.67%
Cc1nc(SCc2nc3ccccc3[nH]2)nc(O)c1Cc1ccccc1 | -2.21%
CCCc1nn(-c2ccc(F)cc2)c(O)c1/C=N/CC1CCNCC1 | 1.98%
N#Cc1nc(-c2ccc([N+](=O)[O-])cc2)oc1N1CCOCC1 | -3.98%
COc1cccc(C2CC(C(F)(F)F)n3ncc(C(=O)N4CCOCC4)c3N2)c1 (centres unmarked) | 0.0289%
COc1cccc2c1cc1c(=O)n(CC(=O)NCc3ccc4c(c3)OCO4)nc(C)n12 | 1.68%
COc1ccc(C(=O)N2CCN(Cc3cc(OC)c(O)c(OC)c3)CC2)cc1 | -4.35%
CCCCOc1cccc(C2c3c(oc4ccccc4c3=O)C(=O)N2c2nc(C)c(C)s2)c1 (centres unmarked) | -2.92%
COc1cc(/C=C2\SC(=O)N(Cc3ccccc3)C2=O)c(Br)cc1OCC(=O)O | 16.5%
CC(CCc1ccccc1)NC(=O)CNC(=S)N1CC2CC(C1)c1cccc(=O)n1C2 (centres unmarked) | 1.16%
COCCNC(=O)c1cnn2c1NC(c1ccc(Br)cc1)CC2C(F)(F)F (centres unmarked) | 1.02%
C[C@@H]1[C@H](c2ccccc2)OC(c2cccs2)N1C (some centres unmarked) | -1.27%
O=C(O)CNc1nc(-c2ccccc2)nc2ccccc12 | 3.86%
O=S(=O)(c1ccc(Cl)nc1)N1CCN(c2ncccn2)CC1 | -1.36%
CC1(c2ccccc2)CC(C)(C)N(C(=O)C2CCCO2)c2ccccc21 (centres unmarked) | 1.62%
CCOC(=O)C1=C(C)N=c2s/c(=C\c3ccccc3OC)c(=O)n2C1c1ccccc1 (centres unmarked) | 9.09%
CCn1c(=O)c2sccc2n2c(CCC(=O)NCc3ccc(C)cc3)nnc12 | -2.41%
Cc1nn(CC(=O)NC(C)c2ccccc2)c(=O)c2ccccc12 (centres unmarked) | 4.54%
Brc1ccccc1-c1nc2ccccc2c2nc3ccccc3n12 | -4.23%
COc1ccc(O)c(C2=NN3C(C2)c2ccccc2OC3(C)C)c1 (centres unmarked) | -1.68%
CC(C)(C)c1ccc(-c2noc(CCC(=O)Nc3cccnc3)n2)cc1 | -3.12%
COc1ccc(S(=O)(=O)N2CCC(C(=O)NC(C)c3ccccc3)CC2)cc1OC (centres unmarked) | 3.16%

Compound | % Inhibition @ 10 uM
Cc1ccc(C(=O)NC2CCS(=O)(=O)C2)cc1 (centres unmarked) | -2.15%
COc1ccc(C(=O)CC#N)cc1 | 0.66%
COc1ccc2ccc(C(=O)/C=C/c3ccncc3)cc2c1 | -2.56%
CCC[C@H](N[C@@H](c1ccc(-c2ccc(F)c(F)c2)cc1)C(F)(F)F)C(=O)NC1(C#N)CC1 | 0.173%
Cc1ccc(Cl)cc1N1CCN(CC(O)COC(C)C)CC1 (centres unmarked) | 3.21%
CCN(CC)C(=O)Cn1cc(SCC(=O)NCc2ccc3c(c2)OCO3)c2ccccc21 | -7.1%
CCC(C)NC(=O)C(Cc1ccccc1)NS(=O)(=O)c1cccc2nsnc12 (centres unmarked) | -3.23%
CC(NC(=O)C1CCN(S(=O)(=O)c2cccc3nonc23)CC1)c1ccccc1 (centres unmarked) | 2.35%
OC(c1ccccc1)C(CN1CCOCC1)c1ccccc1 (centres unmarked) | -1.56%
OCC1CCCN1Cc1ccccc1Br (centres unmarked) | 6.06%
CC[N+]1=C(C)C(C)(C)c2cc(C)ccc21 | 0.238%
Fc1ccc(N2CCN(Cc3csc(-c4ccccc4)n3)CC2)cc1 | 2.6%
Cc1sc2nc(SCC(=O)c3ccccc3)nc(N)c2c1C | 12.9%
CN1C(=O)C(O)(CC(=O)c2ccccc2)c2cc(Br)ccc21 (centres unmarked) | -2.32%
Cc1ccc(C)c(OCCCCCc2c(C)n[nH]c2C)c1 | -6.12%
CCc1ccccc1-n1nnc(-c2nc(-c3cccs3)no2)c1N | -1.87%
CC(C)CNC(=O)c1ccccc1NC(=O)c1ccccc1Br | 2.44%
CC1C2=C(O)CC(C)(C)CC2=Nc2sc(C#N)c(N)c21 (centres unmarked) | -6.07%
COc1ccccc1OCC(=O)Nc1cc(C)ccn1 | 2.56%
O=C1C2C3CCC(C3)C2C(=O)N1c1cccc(O)c1 (centres unmarked) | -0.996%
CN(C)S(=O)(=O)c1ccc(C(=O)Nc2c3c(nn2-c2cccc(Cl)c2)CS(=O)(=O)C3)cc1 | 0.415%
